# In the supplement of paper PMC8728848:
# This is one part of the list.
# B1: Jacalin (Artocarpus integrifolia) (protein)
# chain: MAYSSLLSLSVLALLFSISSADTRKWFLANGINQNPIGIIEAAVGVSEDLLNLNGMEAKNDEQSGISQTVIVGPWGAKVSTSSNGKAFDDGAFTGIREINLSYNKETAIGDFQVVYDLNGSPYVGQNHKSFITGFTPVKISLDFPSEYIMEVSGYTGNVSGYVVVRSLTFKTNKKTYGPYGVTSGTPFNLPIENGLIVGFKGSIGYWLDYFSMYLSL
# Experiments:
# Assay in all cases: glycan array binding signal (z-score within array); higher = stronger binding
# Details in all cases: glycan notation: IUPAC condensed, linker removed
# [1] = target: Fuc(a1-2)[GalNAc(a1-3)]Gal(b1-3)GlcNAc(b1-2)Man(a1-3)[Fuc(a1-2)[GalNAc(a1-3)]Gal(b1-3)GlcNAc(b1-2)Man(a1-6)]Man(b1-4)GlcNAc(b1-4)[Fuc(a1-6)]GlcNAc
# How it was run: (§1)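 The Consortium for Functional Glycomics database supplied 3228 glycan arrays, of which those lacking an available protein sequence were dropped. The binding signal, a within-array Z-score, was averaged across arrays of the same protein sequence and across linkers. Negative scores can be read as non-binding.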
# [2] = target: Fuc(a1-2)[GalNAc(a1-3)]Gal(b1-3)GlcNAc(b1-3)GalNAc
# How it was run: as §1
# [3] = target: Fuc(a1-2)[GalNAc(a1-3)]Gal(b1-3)GlcNAc(b1-6)GalNAc
# How it was run: as §1
# [4] = target: Fuc(a1-2)[GalNAc(a1-3)]Gal(b1-4)Glc
# How it was run: as §1
# [5] = target: Fuc(a1-2)[GalNAc(a1-3)]Gal(b1-4)GlcNAc
# How it was run: as §1
# [6] = target: Fuc(a1-2)[GalNAc(a1-3)]Gal(b1-4)GlcNAc(b1-2)Man
# How it was run: as §1
# [7] = target: Fuc(a1-2)[GalNAc(a1-3)]Gal(b1-4)GlcNAc(b1-2)Man(a1-3)[Fuc(a1-2)[GalNAc(a1-3)]Gal(b1-4)GlcNAc(b1-2)Man(a1-6)]Man(b1-4)GlcNAc(b1-4)GlcNAc
# How it was run: as §1
# [8] = target: Fuc(a1-2)[GalNAc(a1-3)]Gal(b1-4)GlcNAc(b1-2)Man(a1-3)[Fuc(a1-2)[GalNAc(a1-3)]Gal(b1-4)GlcNAc(b1-2)Man(a1-6)]Man(b1-4)GlcNAc(b1-4)[Fuc(a1-6)]GlcNAc
# How it was run: as §1
# [9] = target: Fuc(a1-2)[GalNAc(a1-3)]Gal(b1-4)GlcNAc(b1-3)Gal(b1-4)GlcNAc
# How it was run: as §1
# [10] = target: Fuc(a1-2)[GalNAc(a1-3)]Gal(b1-4)GlcNAc(b1-3)Gal(b1-4)GlcNAc(b1-3)Gal(b1-4)GlcNAc
# How it was run: as §1
# [11] = target: Fuc(a1-2)[GalNAc(a1-3)]Gal(b1-4)GlcNAc(b1-3)GalNAc
# How it was run: as §1
# [12] = target: Fuc(a1-2)[GalNAc(a1-3)]Gal(b1-4)GlcNAc(b1-3)[Fuc(a1-2)[GalNAc(a1-3)]Gal(b1-4)GlcNAc(b1-6)]GalNAc
# How it was run: as §1
# [13] = target: Fuc(a1-2)[GalNAc(a1-3)]Gal(b1-4)GlcNAc(b1-6)GalNAc
# How it was run: as §1
# [14] = target: Fuc(a1-2)[GalNAc(a1-3)]Gal(b1-4)[Fuc(a1-3)]GlcNAc
# How it was run: as §1
# [15] = target: Fuc(a1-2)[GalNAc(a1-3)]Gal(b1-4)[Fuc(a1-3)]GlcNAc(b1-3)GalNAc
# How it was run: as §1
# [16] = target: Fuc(a1-2)[GalNAc(a1-4)]Gal(b1-4)GlcNAc
# How it was run: as §1
# [17] = target: Fuc(a1-2)[GalNAc(b1-3)]Gal
# How it was run: as §1
# Fuc(a1-3)GlcNAc = target: Fuc(a1-3)GlcNAc
# How it was run: as §1
# [18] = target: Fuc(a1-3)[Gal(b1-4)]Glc6S
# How it was run: as §1
# [19] = target: Fuc(a1-3)[Gal(b1-4)]GlcNAc
# How it was run: as §1
# [20] = target: Fuc(a1-3)[Gal(b1-4)]GlcNAc(b1-2)Man
# How it was run: as §1
# [21] = target: Fuc(a1-3)[Gal(b1-4)]GlcNAc(b1-2)Man(a1-3)[Fuc(a1-3)[Gal(b1-4)]GlcNAc(b1-2)Man(a1-6)]Man(b1-4)GlcNAc(b1-4)GlcNAc
# How it was run: as §1
# [22] = target: Fuc(a1-3)[Gal(b1-4)]GlcNAc(b1-2)Man(a1-3)[Fuc(a1-3)[Gal(b1-4)]GlcNAc(b1-2)Man(a1-6)]Man(b1-4)GlcNAc(b1-4)[Fuc(a1-6)]GlcNAc
# How it was run: as §1
# [23] = target: Fuc(a1-3)[Gal(b1-4)]GlcNAc(b1-3)Gal(b1-3)[Fuc(a1-4)]GlcNAc
# How it was run: as §1
# [24] = target: Fuc(a1-3)[Gal(b1-4)]GlcNAc(b1-3)Gal(b1-4)[Fuc(a1-3)]GlcNAc
# How it was run: as §1
# [25] = target: Fuc(a1-3)[Gal(b1-4)]GlcNAc(b1-3)Gal(b1-4)[Fuc(a1-3)]GlcNAc(b1-3)Gal(b1-4)[Fuc(a1-3)]GlcNAc
# How it was run: as §1
# [26] = target: Fuc(a1-3)[Gal(b1-4)]GlcNAc(b1-3)GalNAc
# How it was run: as §1
# [27] = target: Fuc(a1-3)[Gal(b1-4)]GlcNAc(b1-4)Gal(b1-4)[Fuc(a1-3)]GlcNAc
# How it was run: as §1
# [28] = target: Fuc(a1-3)[Gal(b1-4)]GlcNAc(b1-4)Gal(b1-4)[Fuc(a1-3)]GlcNAc(b1-4)Gal(b1-4)[Fuc(a1-3)]GlcNAc
# How it was run: as §1
# [29] = target: Fuc(a1-3)[Gal(b1-4)]GlcNAc(b1-6)GalNAc
# How it was run: as §1
# [30] = target: Fuc(a1-3)[Gal(b1-4)]GlcNAc(b1-6)[Gal(b1-3)GlcNAc(b1-3)]Gal(b1-4)Glc
# How it was run: as §1
# [31] = target: Fuc(a1-3)[Gal(b1-4)]GlcNAc6S
# How it was run: as §1
# [32] = target: Fuc(a1-3)[Gal3S(b1-4)]Glc
# How it was run: as §1
# [33] = target: Fuc(a1-3)[Gal3S(b1-4)]GlcNAc
# How it was run: as §1
# [34] = target: Fuc(a1-3)[Gal3S(b1-4)]GlcNAc6S
# How it was run: as §1
# [35] = target: Fuc(a1-3)[GalNAc(b1-4)]GlcNAc
# How it was run: as §1
# [36] = target: Fuc(a1-3)[GalNAc(b1-4)]GlcNAc6S
# How it was run: as §1
binder,measurement,setting,value
B1,glycan array binding signal (z-score),[1],-0.235
same,glycan array binding signal (z-score),[2],0.29
same,glycan array binding signal (z-score),[3],-0.279
same,glycan array binding signal (z-score),[4],-0.276
same,glycan array binding signal (z-score),[5],-0.262
same,glycan array binding signal (z-score),[6],-0.29
same,glycan array binding signal (z-score),[7],-0.241
same,glycan array binding signal (z-score),[8],-0.234
same,glycan array binding signal (z-score),[9],-0.283
same,glycan array binding signal (z-score),[10],-0.174
same,glycan array binding signal (z-score),[11],0.427
same,glycan array binding signal (z-score),[12],-0.267
same,glycan array binding signal (z-score),[13],-0.28
same,glycan array binding signal (z-score),[14],-0.211
same,glycan array binding signal (z-score),[15],-0.197
same,glycan array binding signal (z-score),[16],-0.264
same,glycan array binding signal (z-score),[17],0.341
same,glycan array binding signal (z-score),Fuc(a1-3)GlcNAc,-0.279
same,glycan array binding signal (z-score),[18],-0.23
same,glycan array binding signal (z-score),[19],-0.263
same,glycan array binding signal (z-score),[20],-0.228
same,glycan array binding signal (z-score),[21],-0.259
same,glycan array binding signal (z-score),[22],-0.249
same,glycan array binding signal (z-score),[23],-0.245
same,glycan array binding signal (z-score),[24],-0.216
same,glycan array binding signal (z-score),[25],-0.272
same,glycan array binding signal (z-score),[26],0.527
same,glycan array binding signal (z-score),[27],-0.329
same,glycan array binding signal (z-score),[28],-0.325
same,glycan array binding signal (z-score),[29],-0.24
same,glycan array binding signal (z-score),[30],-0.267
same,glycan array binding signal (z-score),[31],-0.249
same,glycan array binding signal (z-score),[32],-0.263
same,glycan array binding signal (z-score),[33],-0.306
same,glycan array binding signal (z-score),[34],-0.272
same,glycan array binding signal (z-score),[35],-0.183
same,glycan array binding signal (z-score),[36],-0.204
